Laboratory results published in the supplement of paper PMC8728848.
This is one part of the list.

Key:
Experiment in all cases: glycan array binding signal (z-score within array); higher = stronger binding
Conditions in all cases: glycan notation: IUPAC condensed, linker removed
[1] = target: GalNAc(b1-3)Gal(a1-4)Gal(b1-4)GlcNAc
Procedure, shortened: (§1)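 From the Consortium for Functional Glycomics database, 3228 arrays were curated, keeping only those whose protein sequence was available. Binding is given as a within-array Z-score averaged across arrays sharing a protein sequence and across linkers. Negative Z-scores can be read as non-binding.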

[2] = target: GalNAc(b1-3)Gal(a1-4)Gal(b1-4)GlcNAc(b1-3)Gal(b1-4)Glc
Procedure, shortened: as §1

[3] = target: GalNAc(b1-3)Gal(a1-6)Gal(b1-4)Glc
Procedure, shortened: as §1

GalNAc(b1-3)GalNAc = target: GalNAc(b1-3)GalNAc
Procedure, shortened: as §1

GalNAc(b1-4)GlcNAc = target: GalNAc(b1-4)GlcNAc
Procedure, shortened: as §1

[4] = target: GalNAc(b1-4)GlcNAc(b1-2)Man(a1-3)[GalNAc(b1-4)GlcNAc(b1-2)Man(a1-6)]Man(b1-4)GlcNAc(b1-4)GlcNAc
Procedure, shortened: as §1

Glc(a1-4)Glc = target: Glc(a1-4)Glc
Procedure, shortened: as §1

Glc(a1-6)Glc(a1-6)Glc = target: Glc(a1-6)Glc(a1-6)Glc
Procedure, shortened: as §1

Glc(b1-4)Glc = target: Glc(b1-4)Glc
Procedure, shortened: as §1

Glc(b1-6)Glc = target: Glc(b1-6)Glc
Procedure, shortened: as §1

GlcA(b1-3)Gal = target: GlcA(b1-3)Gal
Procedure, shortened: as §1

GlcA(b1-3)GlcNAc = target: GlcA(b1-3)GlcNAc
Procedure, shortened: as §1

GlcA(b1-6)Gal = target: GlcA(b1-6)Gal
Procedure, shortened: as §1

[5] = target: GlcNAc(a1-3)Gal(b1-4)GlcNAc
Procedure, shortened: as §1

[6] = target: GlcNAc(a1-4)Gal(b1-3)GlcNAc
Procedure, shortened: as §1

[7] = target: GlcNAc(a1-4)Gal(b1-4)GalNAc
Procedure, shortened: as §1

[8] = target: GlcNAc(a1-4)Gal(b1-4)GlcNAc
Procedure, shortened: as §1

[9] = target: GlcNAc(a1-4)Gal(b1-4)GlcNAc(b1-3)Gal(b1-4)Glc
Procedure, shortened: as §1

[10] = target: GlcNAc(a1-4)Gal(b1-4)GlcNAc(b1-3)Gal(b1-4)GlcNAc
Procedure, shortened: as §1

[11] = target: GlcNAc(a1-4)Gal(b1-4)GlcNAc(b1-3)Gal(b1-4)GlcNAc(b1-3)Gal(b1-4)GlcNAc
Procedure, shortened: as §1

[12] = target: GlcNAc(a1-4)Gal(b1-4)GlcNAc(b1-3)Gal(b1-4)[Fuc(a1-3)]GlcNAc(b1-3)Gal(b1-4)[Fuc(a1-3)]GlcNAc
Procedure, shortened: as §1

[13] = target: GlcNAc(a1-6)Gal(b1-4)GlcNAc
Procedure, shortened: as §1

[14] = target: GlcNAc(b1-2)Gal(b1-3)GalNAc
Procedure, shortened: as §1

[15] = target: GlcNAc(b1-2)Man(a1-3)[GlcNAc(b1-2)Man(a1-6)]Man(b1-4)GlcNAc(b1-4)GlcNAc
Procedure, shortened: as §1

[16] = target: GlcNAc(b1-2)Man(a1-3)[GlcNAc(b1-2)Man(a1-6)]Man(b1-4)GlcNAc(b1-4)[Fuc(a1-6)]GlcNAc
Procedure, shortened: as §1

[17] = target: GlcNAc(b1-2)[GlcNAc(b1-4)]Man(a1-3)[GlcNAc(b1-2)Man(a1-6)]Man(b1-4)GlcNAc(b1-4)GlcNAc
Procedure, shortened: as §1

GlcNAc(b1-3)Gal = target: GlcNAc(b1-3)Gal
Procedure, shortened: as §1

[18] = target: GlcNAc(b1-3)Gal(b1-3)GalNAc
Procedure, shortened: as §1

GlcNAc(b1-3)Gal(b1-4)Glc = target: GlcNAc(b1-3)Gal(b1-4)Glc
Procedure, shortened: as §1

[19] = target: GlcNAc(b1-3)Gal(b1-4)GlcNAc
Procedure, shortened: as §1

[20] = target: GlcNAc(b1-3)Gal(b1-4)GlcNAc(b1-3)Gal(b1-4)GlcNAc
Procedure, shortened: as §1

GlcNAc(b1-3)GalNAc = target: GlcNAc(b1-3)GalNAc
Procedure, shortened: as §1

GlcNAc(b1-3)Man = target: GlcNAc(b1-3)Man
Procedure, shortened: as §1

[21] = target: GlcNAc(b1-3)[GlcNAc(b1-4)][GlcNAc(b1-6)]GlcNAc
Procedure, shortened: as §1

[22] = target: GlcNAc(b1-3)[GlcNAc(b1-6)]Gal(b1-4)GlcNAc
Procedure, shortened: as §1

[23] = target: GlcNAc(b1-3)[GlcNAc(b1-6)]GalNAc
Procedure, shortened: as §1

[24] = target: GlcNAc(b1-4)Gal(b1-4)GlcNAc
Procedure, shortened: as §1

GlcNAc(b1-4)GlcNAc = target: GlcNAc(b1-4)GlcNAc
Procedure, shortened: as §1

[25] = target: GlcNAc(b1-4)GlcNAc(b1-4)GlcNAc
Procedure, shortened: as §1

[26] = target: GlcNAc(b1-4)GlcNAc(b1-4)GlcNAc(b1-4)GlcNAc(b1-4)GlcNAc
Procedure, shortened: as §1

[27] = target: GlcNAc(b1-4)GlcNAc(b1-4)GlcNAc(b1-4)GlcNAc(b1-4)GlcNAc(b1-4)GlcNAc
Procedure, shortened: as §1

[28] = target: GlcNAc(b1-4)[GlcNAc(b1-6)]GalNAc
Procedure, shortened: as §1

[29] = target: GlcNAc(b1-6)Gal(b1-4)GlcNAc
Procedure, shortened: as §1

GlcNAc(b1-6)GalNAc = target: GlcNAc(b1-6)GalNAc
Procedure, shortened: as §1

GlcNAc3Prop(b1-4)GlcNAc = target: GlcNAc3Prop(b1-4)GlcNAc
Procedure, shortened: as §1

B1: Ecp6 (Cladosporium fulvum), B3VBK9 (protein)
chain: MQSMILFAAALMGAAVNGFVLPRTDDPDCETKATDCGSTSNIKYTVVKGDTLTSIAKKFKSGICNIVSVNKLANPNLIELGATLIIPENCSNPDNKSCVSTPAEPTETCVPGLPGSYTIVSGDTLTNISQDFNITLDSLIAANTQIENPDAIDVGQIITVPVCPSSQCEAVGTYNIVAGDLFVDLAATYHTTIGQIKALNNNVNPSKLKVGQQIILPQDCKNVTTAVA
glycan array binding signal (z-score) [1]: -0.1
glycan array binding signal (z-score) [2]: -0.099
glycan array binding signal (z-score) [3]: -0.106
glycan array binding signal (z-score) (GalNAc(b1-3)GalNAc): -0.095
glycan array binding signal (z-score) (GalNAc(b1-4)GlcNAc): -0.082
glycan array binding signal (z-score) [4]: -0.08
glycan array binding signal (z-score) (Glc(a1-4)Glc): -0.101
glycan array binding signal (z-score) (Glc(a1-6)Glc(a1-6)Glc): -0.072
glycan array binding signal (z-score) (Glc(b1-4)Glc): -0.1
glycan array binding signal (z-score) (Glc(b1-6)Glc): -0.095
glycan array binding signal (z-score) (GlcA(b1-3)Gal): -0.089
glycan array binding signal (z-score) (GlcA(b1-3)GlcNAc): -0.106
glycan array binding signal (z-score) (GlcA(b1-6)Gal): -0.078
glycan array binding signal (z-score) [5]: -0.073
glycan array binding signal (z-score) [6]: -0.101
glycan array binding signal (z-score) [7]: -0.097
glycan array binding signal (z-score) [8]: -0.078
glycan array binding signal (z-score) [9]: -0.105
glycan array binding signal (z-score) [10]: -0.091
glycan array binding signal (z-score) [11]: -0.107
glycan array binding signal (z-score) [12]: -0.002
glycan array binding signal (z-score) [13]: -0.102
glycan array binding signal (z-score) [14]: -0.081
glycan array binding signal (z-score) [15]: -0.08
glycan array binding signal (z-score) [16]: -0.082
glycan array binding signal (z-score) [17]: -0.083
glycan array binding signal (z-score) (GlcNAc(b1-3)Gal): -0.075
glycan array binding signal (z-score) [18]: -0.066
glycan array binding signal (z-score) (GlcNAc(b1-3)Gal(b1-4)Glc): -0.094
glycan array binding signal (z-score) [19]: -0.1
glycan array binding signal (z-score) [20]: -0.075
glycan array binding signal (z-score) (GlcNAc(b1-3)GalNAc): -0.094
glycan array binding signal (z-score) (GlcNAc(b1-3)Man): -0.095
glycan array binding signal (z-score) [21]: -0.073
glycan array binding signal (z-score) [22]: -0.09
glycan array binding signal (z-score) [23]: -0.106
glycan array binding signal (z-score) [24]: -0.079
glycan array binding signal (z-score) (GlcNAc(b1-4)GlcNAc): -0.085
glycan array binding signal (z-score) [25]: 10.3
glycan array binding signal (z-score) [26]: 13
glycan array binding signal (z-score) [27]: 10.7
glycan array binding signal (z-score) [28]: -0.103
glycan array binding signal (z-score) [29]: -0.109
glycan array binding signal (z-score) (GlcNAc(b1-6)GalNAc): -0.079
glycan array binding signal (z-score) (GlcNAc3Prop(b1-4)GlcNAc): -0.108
